# Assay results: the supplement of paper PMC11417369
# ± gives the standard deviation of the averaged measurements. The list shows a part of the results.
# System: PfAP2-EXP AP2 domain (GST-tagged)
# Experiment: gcPBM binding intensity (ln(normalized median fluorescence intensity)); higher = stronger DNA binding
# In short: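 Probes on an Agilent 4 × 180k array were primer-extended, double-stranded and 36 bp long, taken from intergenic genomic regions, with negative controls added. GST-tagged P. falciparum DNA-binding domains from E. coli, about 25 μg on average, were applied to the array for 1 h in 1× PBS containing 1% milk, 0.2 mg/ml BSA, 0.5% salmon testes DNA and 0.03% Triton X-100. Binding intensity, obtained after Alexa488 anti-GST antibody detection and a 488 nm scan, is the highest Masliner-normalised natural-log median intensity across replicate spots of either probe orientation.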
row,Sequence,gcPBM binding intensity (ln)
1,TATTTATTTAATTACACACGAACATATAACCATTTC [CACACA_site211],8.72 ± 0.35
2,ATTTCTTTGCTTTTCAAACACACAAAAGTTATTATA [CACACA_site520],8.69 ± 0.47
3,GTTGAAAAAAAAAATGCACACGCATACATATAATAT [CACACA_site8117],8.63 ± 0.4
4,GAATATTACATGTATTGTACAGGTAATGTTAAAAAT [XGTACX_site8274],8.72 ± 0.4
5,TTTTTTGTATTTTTCACACACTCTCTATCTCTCTCA [CACACA_site2095],8.87 ± 0.48
6,AAAAAAAAAAAAAAAACACACATATATATTATTGTA [CACACA_site3979],8.48 ± 0.18
7,TAACATAAATCCATACGTACCTATATATATATAATA [XGTACX_site2626],8.58 ± 0.33
8,ATTTATATTAAAAGTGTGCACTTTTTTTTTTTTTTT,8.67 ± 0.042
9,TCATTCCATACTTTAACACACAAATATATTTAATCC [CACACA_site145],8.76 ± 0.53
10,ATATATATATATATATGTACATATTCACTTATATTT [XGTACX_site5324],10.1 ± 0.45
11,TTTTTTTTTTTGTTTTGTACATAAATTGCAACCAAT [XGTACX_site8949],8.73 ± 0.57
12,TAATCATAAAAAAATACACACATATAAAATATAGAT [CACACA_site7020],8.56 ± 0.4
13,ATATTTATAAATTGCACACAAATAATAACATTATAT [CACACA_site5322],8.48 ± 0.26
14,AAAAGTTAAGCAACAAATTTTATTTCTTATATATAA [TGCATGCA_negctrl_site134],8.3 ± 0.34
15,AAAATTCTTATAAGATGTACAATTTGTAACACTATA [XGTACX_site510],8.62 ± 0.42
16,TTTTTTACAACACGAAAATGAACAATTATAATAAAT [TGCATGCA_negctrl_site301],8.76 ± 0.53
17,TTATACTCACGTTACACACACACAATATATATATAT [CACACA_site4137],9.96 ± 0.38
18,AAATAAATATATAATACACACAAAAATATAAAATGT [CACACA_site3711],8.95 ± 0.32
19,TTTTGTATATATTATTGTACTTTTAATATAGATCGT [XGTACX_site5830],8.54 ± 0.4
20,TCACATACATTACTTACACACCATATTAAGATATAC [CACACA_site4415],8.68 ± 0.43
21,AGTAAAAAAAATATCTGTACATATTAATATAAATGT [XGTACX_site6234],8.54 ± 0.26
22,AAATATTATTCTTTTATTTTTAAACATATAATTATA [GTGCAC_negctrl_site136],8.26 ± 0.38
23,ATCTAAAAATTTTACGCACACAAGTAAAAAAAAAAA [CACACA_site2485],8.76 ± 0.43

row,Sequence,gcPBM binding intensity (ln)
1,TTATACACTGATAAAAGTACATTTGTATGTTTTTTT [XGTACX_site8959],8.35 ± 0.27
2,TTTTATAATCATAATAGTACTTTTTCTTTTTCACAT [XGTACX_site5017],8.48 ± 0.4
3,AATAATTTTTTAAACACACACACATATATATATATA [CACACA_site95],10.1 ± 0.3
4,ATAAAGAAATAAAGTTGTACATTATATATATATATA [XGTACX_site7729],10 ± 0.42
5,TGTTTAAAAATAATTTGTACATATATTTTATTTCAT [XGTACX_site1272],8.39 ± 0.38
6,AATACATACGGACACACACACACATATATATATATA [CACACA_site5884],10.3 ± 0.17
7,TCTTTTGTTTAACCTACATGCAGAATATAAGTCTTC [TGCATGCA_site99],9.03 ± 0.28
8,ATTCATTATTCACCTTGTACACAAATGATTATCGTA [XGTACX_site455],8.84 ± 0.35
9,AAAAAAAAAAGAAACACACACATTTGTCTATAATAT [CACACA_site7063],8.8 ± 0.71
10,ATGTATGCAAAAATGGTGCATATTAAATGTATAACA [GTGCAC_site9722],9.035 ± 0.078
11,TTTGTTCTTTTAATGTGTACATATACACTTGTAATA [XGTACX_site2635],8.7 ± 0.39
12,TGACCTTATGTGTTTTGAAGGGGAAAGGAAATGCGC [XGTACX_negctrl_site411],8.72 ± 0.4
13,TATAAAAATAGGATTTGTACATATAAAAAAGGAAAA [XGTACX_site8678],8.71 ± 0.53
14,CAGAAATAGAGATACACACACACATATATTTATGTA [CACACA_site3968],8.46 ± 0.33
15,TATAAATATATGTATGCACACATTTTTTTTGGAAAA [CACACA_site1070],8.4 ± 0.35
16,TAATATAAAAAAGGTACTACACGAAGGAATAAAAAT [XGTACX_site6872],9.26 ± 0.58
17,GGTATAATTCATATAACACACATTTCAATGTTAAAA [CACACA_site2172],8.49 ± 0.52
18,TGTATTAATTTGTAATGTACACATATATGTATTATA [XGTACX_site4152],8.58 ± 0.42
19,TAAGTAAACTTTCTATGTACATATTTTCAAATATTA [XGTACX_site6260],8.55 ± 0.4
20,CTTATATATACATATACACACACACCCATATATATA [CACACA_site8705],8.76 ± 0.33
21,ATGTAGACAACATATGAACACACAAAATATTTTTTT [CACACA_site8955],8.53 ± 0.45
22,TTAACAAAATTTTTAACACACAAAAAAAAAAAAAAA [CACACA_site1828],8.23 ± 0.47
